The supplement of paper PMC9446081
Screen size: about 39,000 compounds; about 220 (0.56%) showed activity. The list shows a part of the results.

System: Escherichia coli K-12 BW25113
Assay: relative growth (OD600 normalised to plate interquartile mean) (fraction); higher = less growth inhibition, active = 0.2 or less
Details: 50 µM; LB; incubation time: overnight (16-24 h)
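Further: static incubation at 37 °C against the wild-type strain, values averaged over two biological replicates.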

SMILES	relative growth
Cc1noc(C)c1NC(=O)N(C)C[C@H]1Oc2ccc(NC(=O)CCN3CCOCC3)cc2C(=O)N([C@@H](C)CO)C[C@H]1C	inactive: 0.953
COc1ccc(C(=O)CO)cc1	inactive: 0.993
C[C@@H]1CN([C@H](C)CO)C(=O)c2cccc(NC(=O)c3ccncc3)c2O[C@H]1CN(C)Cc1ccc(-c2ccccc2)cc1	inactive: 1.01
CC(C)(C)[S@](=O)N1Cc2cc(C(=O)N[C@@H]3CCN(Cc4ccccc4)C3)nc(-c3cccc(-c4cccnc4)c3)c2[C@@H]1CCO	inactive: 0.98
O=C(C[C@@H]1CC[C@@H]2[C@H](COC[C@@H](O)CN2C(=O)C2CC2)O1)NCc1ccncc1	inactive: 1
COc1ccccc1C#Cc1ccc2c(c1)O[C@H](CN(C)Cc1cccnc1)[C@@H](C)CN([C@H](C)CO)S2(=O)=O	inactive: 1.01
C[C@@H]1CN([C@H](C)CO)C(=O)c2cccc(NC(=O)C3CC3)c2O[C@H]1CN(C)S(=O)(=O)c1ccc(Cl)cc1	inactive: 1.01
C[C@H]1CN([C@@H](C)CO)S(=O)(=O)c2ccc(-c3cncnc3)cc2O[C@@H]1CN(C)C(=O)NC1CCCC1	inactive: 1
C[C@@H]1CCCCO[C@H](CN(C)Cc2ccc(C(=O)O)cc2)[C@H](C)CN([C@@H](C)CO)C(=O)c2cc(NC(=O)C3CCCCC3)ccc2O1	inactive: 1.01
COc1cccc(C#Cc2ccc3c(c2)O[C@H](CN(C)C(=O)CN2CCOCC2)[C@H](C)CN([C@H](C)CO)S3(=O)=O)c1	inactive: 0.901
C[C@H](CO)N1C[C@H](C)[C@H](CN(C)Cc2ccc(-c3ccccc3)cc2)Oc2ccc(NS(=O)(=O)c3cccs3)cc2CC1=O	inactive: 1.03
Cc1ccc(S(=O)(=O)Nc2ccc3c(c2)C(=O)N([C@@H](C)CO)C[C@H](C)[C@H](CN(C)C(=O)CCC(F)(F)F)OCCCC[C@H](C)O3)cc1	inactive: 0.883
C[C@@H]1CCCCO[C@@H](CN(C)C(=O)Nc2ccc(C(F)(F)F)cc2)[C@@H](C)CN([C@H](C)CO)C(=O)c2cc(NS(=O)(=O)c3ccccc3)ccc2O1	inactive: 0.996
O=C(O)C[C@H](O)C(=O)O	inactive: 0.979
C[C@@H]1CCCCO[C@H](CN(C)Cc2ccc(C(=O)O)cc2)[C@H](C)CN([C@@H](C)CO)C(=O)c2cc(NS(=O)(=O)c3ccc(F)cc3)ccc2O1	inactive: 0.962
C[C@H]1CCCCO[C@H](CN(C)S(=O)(=O)c2ccc(F)cc2)[C@@H](C)CN([C@@H](C)CO)C(=O)c2cc(NC(=O)Nc3ccc(C(F)(F)F)cc3)ccc2O1	inactive: 1.01
C[C@@H]1O[C@H](O[C@@H]2[C@H](O)C[C@@]3(C)[C@@H](CC[C@]4(C)[C@H]3CC=C3[C@H]5CC(C)(C)CC[C@@]5(C(=O)O[C@H]5O[C@@H](C)[C@@H](O)[C@H](O[C@H]6OC[C@@H](O)[C@@H](O)[C@@H]6O)[C@H]5O[C@@H]5O[C@H](C)[C@H](O)[C@H](O[C@@H]6OC[C@H](O)[C@H](O[C@@H]7O[C@H](C)[C@@H](O)[C@H](O)[C@@H]7O)[C@H]6O)[C@H]5O)[C@@H](O)C[C@@]34C)[C@]2(C)CO)[C@@H](O)[C@H](O[C@H]2OC[C@@H](O)[C@@H](O[C@H]3OC[C@@H](O[C@H]4OC[C@@](O)(CO)[C@@H]4O)[C@@H](O)[C@@H]3O)[C@@H]2O)[C@@H]1O	inactive: 0.985
COCC(=O)N1CC[C@]2(CC1)CN([C@@H](CO)c1c2c2ccc(cc2n1C)OC)C(=O)CN1CCOCC1	inactive: 1.02
C=CCOC(=O)[C@@H]1[C@H]2C(=O)O[C@H](c3ccccc3)[C@H](c3ccccc3)N2[C@H](c2ccc(OCCOC(=O)[C@H]3C[C@H]4C(=O)N[C@@H](CC(C)C)C(=O)N4[C@H]3c3cccc(OCCO)c3)cc2)[C@@]12C(=O)Nc1ccc(I)cc12	inactive: 1.06
C[C@@H]1CCCCO[C@@H](CN(C)C(=O)Nc2ccc3c(c2)OCO3)[C@H](C)CN([C@H](C)CO)C(=O)c2cc(NC(=O)NC3CCCCC3)ccc2O1	inactive: 0.999

SMILES	relative growth
C[C@@H]1CN([C@@H](C)CO)C(=O)c2cc(NC(=O)CCCN(C)C)ccc2O[C@@H]1CN(C)C(=O)NC1CCCCC1	inactive: 0.993
C=CC[C@@H](CC(=O)N[C@@H](CO)Cc1ccccc1)C(=O)NC[C@H](OC(=O)[C@@H](CC=C)Cc1ccc(F)cc1)c1ccccc1	inactive: 1
C[C@@H]1CN([C@@H](C)CO)C(=O)c2cc(NS(=O)(=O)c3ccccc3)ccc2O[C@@H]1CN(C)Cc1ccc(Cl)c(Cl)c1	inactive: 0.972
CN(C)CCCNC(=O)C[C@H]1CC[C@H](NS(=O)(=O)c2ccccc2)[C@H](CO)O1	inactive: 1.03
Nc1nnc(SCC(=O)NC[C@H]2CCCO2)[nH]1	inactive: 0.988
C[C@@H]1CN([C@H](C)CO)C(=O)c2cc(C#CC3CCCC3)cnc2O[C@H]1CN(C)C(=O)Cc1ccccn1	inactive: 1.01
CCC(=O)N1C[C@]2(C1)CN([C@H](CO)c1[nH]c3cc(ccc3c12)OC)S(=O)(=O)C	inactive: 0.992
C[C@@H]1CN([C@H](C)CO)S(=O)(=O)c2ccc(C#Cc3ccccc3F)cc2O[C@@H]1CN(C)CC1CC1	inactive: 0.999
COc1cccc(NC(=O)N[C@H]2C=C[C@@H](CC(=O)N3CCN(C)CC3)O[C@H]2CO)c1	inactive: 1
C[C@@H]1CN([C@@H](C)CO)C(=O)c2cc(-c3ccc(C(=O)N(C)C)cc3)cnc2O[C@H]1CN(C)C(=O)C1CC1	inactive: 1.01
COc1ccc(NC(=O)Nc2cccc3c2O[C@@H](CN(C)Cc2ccc(-c4ccccc4)cc2)[C@@H](C)CN([C@@H](C)CO)C3=O)cc1	inactive: 0.992
C[C@H](CO)N1C[C@H](C)[C@@H](CN(C)Cc2ccc(F)cc2)Oc2ncc(C#Cc3cccnc3)cc2C1=O	inactive: 0.969
COc1ccccc1CNC(=O)C[C@@H]1C[C@@H]2c3cc(NC(=O)Cc4ccncc4)ccc3O[C@@H]2[C@H](CO)O1	inactive: 0.986
C[C@H]1CN([C@@H](C)CO)C(=O)Cc2cc(NC(=O)C3CCCCC3)ccc2O[C@@H]1CN(C)Cc1ccc(C(=O)Nc2ccccc2N)cc1	inactive: 0.997
COc1ccccc1S(=O)(=O)N[C@@H]1C=C[C@H](CC(=O)N2CCN(C)CC2)O[C@@H]1CO	inactive: 1
C[C@@H]1CN([C@@H](C)CO)C(=O)c2cc(NS(=O)(=O)c3cccs3)ccc2O[C@@H]1CN(C)S(=O)(=O)c1ccc(F)cc1	inactive: 0.997
Cc1ccc(Cl)c(Nc2ccccc2C(=O)[O-])c1Cl.[Na+]	inactive: 0.954
N=C(N)NCCCCN.O=S(=O)(O)O	inactive: 1.02
CCc1c(c/2[nH]c1/C=C/1\N=C(/C(=C/3\N=C(/C=C/4\N/C(=C2)C(=C4C)C=C)[C@@H](C)[C@@H]3CCC(=O)O)CC(=O)N[C@@H](CC(=O)O)C(=O)O)C(=C1C)C(=O)O)C	inactive: 1
C=CC1=C(C)C2=NC/1=C\C1=NC(=C\C3=NC(=C\C4=NC(=C\2)/C(C)=C4CCC(=O)O)/C(CCC(=O)O)=C3C)/C(C=C)=C1C	inactive: 0.973
